# Experimental data taken from PubChem BioAssay AID1461 (National Center for Advancing Translational Sciences (NCATS), 2008).
# Among all 220,000 compounds or so, about 2,300 (1%) were called active. Inconclusive results, whose numbers are uncertain, are shown with a selection of clear calls. The call rests on the fitted dose curve; in most records, active means well fitted inhibition curve with a large enough effect; inconclusive means small, poorly fitted or top-dose-only effect, or effect the other way; inactive means no such curve, though single readings can be large or run the other way. No potency is given beside an inconclusive call; the fits are too rough.
# Target: Neuropeptide S receptor (Homo sapiens) (UniProt Q6W5P4)
# Assay: qHTS Assay for Antagonists of the Neuropeptide S Receptor: cAMP Signal Transduction; further: nearly all actives have a fitted effect of over 50% in size
# Details: CHO-NPSR cells, cAMP TR-FRET, antagonist mode; series mostly up to 38.3 µM
# Potency means the concentration at half of the fitted maximal effect; tags describe the fitted curve by direction and shape.
# UniProt Q6W5P4, sequence (Q6W5P4 whole entry, looked up): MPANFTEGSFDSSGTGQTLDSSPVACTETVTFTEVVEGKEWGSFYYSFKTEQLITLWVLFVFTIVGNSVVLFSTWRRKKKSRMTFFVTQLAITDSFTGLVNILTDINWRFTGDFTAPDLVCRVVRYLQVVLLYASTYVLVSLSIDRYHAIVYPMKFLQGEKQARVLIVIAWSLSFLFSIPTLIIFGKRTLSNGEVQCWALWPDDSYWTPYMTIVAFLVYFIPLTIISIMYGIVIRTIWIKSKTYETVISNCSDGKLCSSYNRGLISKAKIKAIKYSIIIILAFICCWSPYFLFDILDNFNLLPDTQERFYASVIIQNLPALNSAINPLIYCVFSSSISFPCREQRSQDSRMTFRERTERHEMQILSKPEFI
row,SMILES,Potency
1,Cc1cc(NCc2ccccn2)n2nc(C)c(-c3ccc(Cl)cc3)c2n1,"inconclusive [activator, single point]"
2,CC(C)=CC(=O)OCC(=O)Nc1ccc(F)cc1Cl,"inconclusive [inhibitor, single point]"
3,CCCCCCCC(=O)NC(Nc1ccccc1OC)C(Cl)(Cl)Cl (stereo unspecified),"inconclusive [inhibitor, partial curve]"
4,Cc1cc(C)nc(SCc2nnc(SCC(=O)OC3CCCCC3)o2)n1,"inconclusive [inhibitor, full curve, poor fit]"
5,CCOc1ccc(NC(=O)CSc2ncc(-c3ccc(F)cc3)n2Cc2ccco2)cc1,"inconclusive [inhibitor, single point]"
6,COc1ccc(C2CC(c3ccccc3OC(C)=O)=NN2C(=O)/C=C/c2ccccc2)cc1OC (stereo unspecified),"inconclusive [inhibitor, single point]"
7,CNC(=S)N(Cc1ccco1)Cc1cc2cc(OC)ccc2[nH]c1=O,inactive
8,S=C1NCN(Cc2ccco2)CN1CCc1ccccc1,"inconclusive [activator, single point]"
9,CC1=CCC(C(=O)O)C(C(=O)Nc2nc3ccc(S(C)(=O)=O)cc3s2)C1 (stereo unspecified),inactive
10,CCCC(=O)NCCc1c2n(c3ccc(OC)cc13)Cc1ccccc1-2,"inconclusive [inhibitor, partial curve]"
11,O=C(NCCC(c1ccccc1)c1ccccc1)c1ccc(Br)o1,"inconclusive [inhibitor, single point]"
12,CCC1CCCCN1CC(O)Cn1c2ccccc2n2c(=O)cc(C)c(C#N)c12 (stereo unspecified),"inconclusive [activator, full curve]"
13,COc1ccc(CCC(C)Nc2ccc(F)c(F)c2)cc1 (stereo unspecified),inactive
14,O=C(c1cccs1)c1no[n+]([O-])c1C(=O)c1cccs1,"inconclusive [inhibitor, full curve, poor fit]"
15,CN1CCc2c(sc(/N=C/c3cc(C(C)(C)C)ccc3O)c2C#N)C1,"inconclusive [inhibitor, single point]"
16,COC(=O)c1c(C(=O)OC)c(C)n(Cc2cccnc2)c1C,inactive
17,c1ccc2cc(-c3csnn3)ccc2c1,"inconclusive [activator, single point]"
18,Cc1ccccc1-c1cc(C(=O)Nc2sc(C)c(C)c2C(N)=O)c2ccccc2n1,inactive
19,NC(=S)N/N=C/C=C/c1ccccc1,"inconclusive [inhibitor, single point]"
20,CC(C)c1ccc2[nH]c3c(c2c1)CCC/C3=N\NC(=O)c1ccncc1,"inconclusive [inhibitor, single point]"
21,CCC(CC)NC(=O)c1oc2ccccc2c1COc1ccccc1,"inconclusive [inhibitor, single point]"
22,O=C1C=CC(=O)N1CCCCCCN1C(=O)C=CC1=O,"inconclusive [inhibitor, single point]"
23,CCn1nc([N+](=O)[O-])c(C(C#N)c2nc3cc(C(F)(F)F)ccc3s2)c(Cl)c1=O (stereo unspecified),"inconclusive [inhibitor, single point]"
24,Clc1ccc(-c2nnc(-c3ccccc3)o2)c(Cl)c1,"inconclusive [inhibitor, single point]"

row,SMILES,Potency
1,O=C(Nc1ccccc1)c1cnc2n(c1=O)CCS2,inactive
2,O=C1C2CC=C(Cl)CC2C(=O)N1CC1OCCc2ccccc21 (stereo unspecified),"inconclusive [activator, single point]"
3,Cc1cccc(-c2noc(CN(C(=O)C(c3ccccc3)c3ccccc3)C(C)C)n2)c1,"inconclusive [inhibitor, partial curve, poor fit]"
4,CCC(Sc1nc(-c2ccccc2)c(C#N)c(=O)[nH]1)C(=O)Nc1nnc(C)s1 (stereo unspecified),inactive
5,COc1cccc(NC(=O)Nc2ccc(C(C)(C)C)cc2)c1,inactive
6,COc1cc(CNCCc2c[nH]c3ccccc23)ccc1OCc1ccc(F)cc1,"inconclusive [inhibitor, single point]"
7,Cc1ccc(-c2ccc(/C=N/N=C3/NC(=O)C(CC(=O)O)S3)o2)c([N+](=O)[O-])c1 (stereo unspecified),inactive
8,COc1ccc(-c2n[nH]c(=S)n2C2CCCCC2)cc1,inactive
9,CCOP(=O)(OCC)C(C)(C)NC(=O)c1cc([N+](=O)[O-])cc([N+](=O)[O-])c1,inactive
10,CCOC(=O)Cc1nnc(NC(=O)C23CC4CC(CC(C4)C2)C3)s1,"inconclusive [inhibitor, single point]"
11,c1ccc(-c2nccc(-c3ccc(-n4cnc5ccccc54)cc3)n2)nc1,"inconclusive [inhibitor, single point]"
12,CCNC(=S)SCCOc1ccccc1C,"inconclusive [activator, single point]"
13,CCc1cc2c(N3CCN(c4ccccc4)CC3)ncnc2s1,"inconclusive [inhibitor, single point]"
14,CC1CCN(C(=O)CSCc2ccc(Cl)cc2)CC1,inactive
15,Cc1cc(NC(=O)CSc2nc(-c3ccccc3Cl)nc3c2c(=O)n(C)c(=O)n3C)no1,"inconclusive [inhibitor, single point]"
16,c1ccc(-n2ncc3c2ncn2nc(-c4ccco4)nc32)cc1,"inconclusive [activator, single point]"
17,Cc1cc(C)n(CC(O)Cn2c3ccccc3c3ccccc32)n1 (stereo unspecified),"inconclusive [inhibitor, single point]"
18,COc1ccc(OC)c(-c2cc(C(=O)Nc3c(C)nn(Cc4ccccc4)c3C)no2)c1,"inconclusive [inhibitor, single point]"
19,CC1CC(C)CN(S(=O)(=O)c2ccc(C(=O)Nc3sccc3C(N)=O)cc2)C1 (stereo unspecified),"inconclusive [inhibitor, full curve]"
20,COC(=O)c1cc(OC)c(OC)cc1NC(=S)Nc1cccc(Cl)c1,inactive
21,CC12CCC(C(=O)N3CCN(c4ncccn4)CC3)(c3nc4ccccc4nc31)C2(C)C (stereo unspecified),"inconclusive [inhibitor, partial curve]"
22,COCCNC(=O)C(=O)NNC(=O)c1ccccc1OC,inactive
23,CCCc1[nH]nc2c1C(Cc1ccccc1)C(C#N)=C(N)O2 (stereo unspecified),inactive
24,O=C(COc1cc(O)c2c(=O)cc(-c3ccccc3)oc2c1)c1ccccc1,"inconclusive [inhibitor, partial curve]"

row,SMILES,Potency
1,O=c1cc(CSc2ccccn2)nc(N2CCN(c3ccccc3)CC2)[nH]1,"inconclusive [inhibitor, single point]"
2,CS(=O)(=O)Nc1ccccc1C(=O)Nc1ccccc1Cl,inactive
3,COc1ccccc1NS(=O)(=O)c1cc(N2Cc3ccccc3C2=N)ccc1N1CCOCC1,active: 2.51 µM
4,COc1ccc(C(=O)NCC(=O)OCC(=O)c2ccc3c(c2)OCCO3)cc1,inactive
5,COC(=O)c1ccccc1NC(=O)C1CC(c2ccccc2O)=NO1 (stereo unspecified),"inconclusive [inhibitor, partial curve]"
6,Cc1noc2ncnc(N3CCCCC3)c12,inactive
7,O=C1CCCC(O)=C1C1C2=C(CCCC2=O)Oc2ccccc21 (stereo unspecified),"inconclusive [inhibitor, partial curve]"
8,CCn1c(=O)cc(SCC(=O)NCc2ccco2)c2ccccc21,"inconclusive [inhibitor, partial curve, poor fit]"
9,Cc1ccc(S(=O)(=O)N(CC(=O)Nc2cccc([N+](=O)[O-])c2)C2CCCCC2)cc1,"inconclusive [inhibitor, single point]"
10,CCC1(C)Cc2c(sc3c2c(=O)n(C)c2nnc(SCCc4ccccc4)n32)CO1 (stereo unspecified),"inconclusive [inhibitor, partial curve]"
11,O=C1NC(C(=O)O)=CC(c2ccc([N+](=O)[O-])cc2)N1 (stereo unspecified),inactive
12,C[C@H](CO)NC(=O)[C@H](C)[C@@H]1C[C@@]1(C)[C@@H](NC(=O)OCc1ccccc1)c1ccccc1,inactive
13,COc1ccc(-c2cnnc(N/N=C/c3ccc(O)cc3)n2)cc1,inactive
14,O=C(NCC1OCCc2ccccc21)c1ccc(NC(=O)c2ccc(Cl)cc2)cc1 (stereo unspecified),"inconclusive [inhibitor, single point]"
15,Oc1ccccc1C1=Nc2ccccc2N=C(c2ccco2)C1,"inconclusive [inhibitor, single point]"
16,COc1c(C)cc(C(=O)C2CCCN(C(=O)CCCn3cncn3)C2)cc1C (stereo unspecified),inactive
17,Cc1noc(-c2ccc(Cl)cc2)c1C(=O)O/N=C(\N)c1ccc(C(C)(C)C)cc1,"inconclusive [inhibitor, single point]"
18,Cc1cc(C)c(S(=O)(=O)c2ccccc2)c(OC(=O)c2c(Cl)cc(Cl)cc2Cl)n1,"inconclusive [inhibitor, single point]"
19,CCOc1ccccc1NC(=O)N1CCCC(c2nc3c(nnn3Cc3ccc(C)cc3)c(=O)[nH]2)C1 (stereo unspecified),"inconclusive [inhibitor, partial curve]"
20,O=C(O)CCCNc1cc(N2CCC3(CC2)OCCO3)c2noc3c2c1C(=O)c1ccccc1-3,active: 10 µM
21,CCN1CCN(C(=O)c2sc3nc(C)nc(N4CCC(C)CC4)c3c2C)CC1,inactive
22,CCC(=O)Nc1nc2ccccc2n1Cc1ccc(C)cc1,"inconclusive [inhibitor, partial curve, poor fit]"
23,N#Cc1nc(COc2ccc(Cl)cc2Cl)oc1N1CCOCC1,inactive
